# Measured values from the supplement of paper PMC8728848.
# This is one part of the list.
# What was measured:
# Assay in all cases: glycan array binding signal (z-score within array); higher = stronger binding
# Conditions in all cases: glycan notation: IUPAC condensed, linker removed
# [1] = target: Gal(b1-4)GlcNAc(b1-2)Man(a1-6)[GlcNAc(b1-2)Man(a1-3)]Man(b1-4)GlcNAc(b1-4)GlcNAc
# Summary of the method: (§1)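 Glycan array data came from 3228 arrays in the Consortium for Functional Glycomics database, and only arrays with an available protein sequence were kept. Glycan names were put into IUPAC-condensed notation, and columns mapping to the same glycan were averaged. The binding signal is a within-array Z-score, averaged across arrays of one protein sequence run at different concentrations or buffers and across linkers. A negative Z-score can be read as non-binding.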
# [2] = target: Gal(b1-4)GlcNAc(b1-2)Man(a1-6)[Man(a1-3)]Man(b1-4)GlcNAc(b1-4)GlcNAc
# Summary of the method: as §1
# [3] = target: Gal(b1-4)GlcNAc(b1-2)[Gal(b1-4)GlcNAc(b1-4)]Man(a1-3)[Gal(b1-4)GlcNAc(b1-2)Man(a1-6)]Man(b1-4)GlcNAc(b1-4)GlcNAc
# Summary of the method: as §1
# [4] = target: Gal(b1-4)GlcNAc(b1-2)[Gal(b1-4)GlcNAc(b1-4)]Man(a1-3)[Gal(b1-4)GlcNAc(b1-2)[Gal(b1-4)GlcNAc(b1-6)]Man(a1-6)]Man(b1-4)GlcNAc(b1-4)GlcNAc
# Summary of the method: as §1
# [5] = target: Gal(b1-4)GlcNAc(b1-2)[Gal(b1-4)GlcNAc(b1-4)]Man(a1-3)[GlcNAc(b1-4)][Gal(b1-4)GlcNAc(b1-2)Man(a1-6)]Man(b1-4)GlcNAc(b1-4)GlcNAc
# Summary of the method: as §1
# [6] = target: Gal(b1-4)GlcNAc(b1-2)[Gal(b1-4)GlcNAc(b1-4)]Man(a1-3)[GlcNAc(b1-4)][Gal(b1-4)GlcNAc(b1-2)[Gal(b1-4)GlcNAc(b1-6)]Man(a1-6)]Man(b1-4)GlcNAc(b1-4)GlcNAc
# Summary of the method: as §1
# [7] = target: Gal(b1-4)GlcNAc(b1-2)[Gal(b1-4)GlcNAc(b1-4)]Man(a1-3)[GlcNAc(b1-4)][Gal(b1-4)GlcNAc(b1-2)[Gal(b1-4)GlcNAc(b1-6)]Man(a1-6)]Man(b1-4)GlcNAc(b1-4)[Fuc(a1-6)]GlcNAc
# Summary of the method: as §1
# [8] = target: Gal(b1-4)GlcNAc(b1-2)[Gal(b1-4)GlcNAc(b1-6)]Man(a1-6)[Gal(b1-4)GlcNAc(b1-2)Man(a1-3)]Man(b1-4)GlcNAc(b1-4)GlcNAc
# Summary of the method: as §1
# [9] = target: Gal(b1-4)GlcNAc(b1-2)[Gal(b1-4)GlcNAc(b1-6)]Man(a1-6)[Gal(b1-4)GlcNAc(b1-2)Man(a1-3)]Man(b1-4)GlcNAc(b1-4)[Fuc(a1-6)]GlcNAc
# Summary of the method: as §1
# [10] = target: Gal(b1-4)GlcNAc(b1-2)[Gal(b1-4)GlcNAc(b1-6)]Man(a1-6)[GlcNAc(b1-4)][Gal(b1-4)GlcNAc(b1-2)Man(a1-3)]Man(b1-4)GlcNAc(b1-4)GlcNAc
# Summary of the method: as §1
# [11] = target: Gal(b1-4)GlcNAc(b1-3)Gal(b1-3)GlcNAc
# Summary of the method: as §1
# [12] = target: Gal(b1-4)GlcNAc(b1-3)Gal(b1-4)Glc
# Summary of the method: as §1
# [13] = target: Gal(b1-4)GlcNAc(b1-3)Gal(b1-4)GlcNAc
# Summary of the method: as §1
# [14] = target: Gal(b1-4)GlcNAc(b1-3)Gal(b1-4)GlcNAc(b1-3)Gal(b1-4)GlcNAc
# Summary of the method: as §1
# [15] = target: Gal(b1-4)GlcNAc(b1-3)Gal(b1-4)[Fuc(a1-3)GlcNAc(b1-6)]Gal(b1-4)Glc
# Summary of the method: as §1
# [16] = target: Gal(b1-4)GlcNAc(b1-3)Gal(b1-4)[Fuc(a1-3)]GlcNAc(b1-3)Gal(b1-4)[Fuc(a1-3)]GlcNAc
# Summary of the method: as §1
# [17] = target: Gal(b1-4)GlcNAc(b1-3)GalNAc
# Summary of the method: as §1
# [18] = target: Gal(b1-4)GlcNAc(b1-3)[Gal(b1-4)GlcNAc(b1-6)]Gal(b1-4)GlcNAc
# Summary of the method: as §1
# [19] = target: Gal(b1-4)GlcNAc(b1-3)[Gal(b1-4)GlcNAc(b1-6)]GalNAc
# Summary of the method: as §1
# [20] = target: Gal(b1-4)GlcNAc(b1-3)[GlcNAc(b1-6)]Gal(b1-4)GlcNAc
# Summary of the method: as §1
# [21] = target: Gal(b1-4)GlcNAc(b1-6)Gal(b1-4)GlcNAc
# Summary of the method: as §1
# [22] = target: Gal(b1-4)GlcNAc(b1-6)GalNAc
# Summary of the method: as §1
# [23] = target: Gal(b1-4)GlcNAc(b1-6)[Gal(b1-3)]GalNAc
# Summary of the method: as §1
# Gal(b1-4)GlcNAc6P = target: Gal(b1-4)GlcNAc6P
# Summary of the method: as §1
# Gal(b1-6)Gal = target: Gal(b1-6)Gal
# Summary of the method: as §1
# Gal3S(b1-3)GalNAc = target: Gal3S(b1-3)GalNAc
# Summary of the method: as §1
# Gal3S(b1-3)GlcNAc = target: Gal3S(b1-3)GlcNAc
# Summary of the method: as §1
# [24] = target: Gal3S(b1-3)[Fuc(a1-4)]GlcNAc
# Summary of the method: as §1
# Gal3S(b1-4)Glc = target: Gal3S(b1-4)Glc
# Summary of the method: as §1
# Gal3S(b1-4)Glc6S = target: Gal3S(b1-4)Glc6S
# Summary of the method: as §1
binder,measurement,setting,value
"StcE (Escherichia coli), O82882.2 (protein) ADNNSAIYFNTSQPINDLQGSLAAEVKFAQSQILPAHPKEGDSQPHLTSLRKSLLLVRPVKADDKTPVQVEARDDNNKILGTLTLYPPSSLPDTIYHLDGVPEGGIDFTPHNGTKKIINTVAEVNKLSDASGSSIHSHLTNNALVEIHTANGRWVRDIYLPQGPDLEGKMVRFVSSAGYSSTVFYGDRKVTLSVGNTLLFKYVNGQWFRSGELENNRITYAQHIWSAELPAHWIVPGLNLVIKQGNLSGRLNDIKIGAPGELLLHTIDIGMLTTPRDRFDFAKDKEAHREYFQTIPVSRMIVNNYAPLHLKEVMLPTGELLTDMDPGNGGWHSGTMRQRIGKELVSHGIDNANYGLNSTAGLGENSHPYVVAQLAAHNSRGNYANGIQVHGGSGGGGIVTLDSTLGNEFSHEVGHNYGLGHYVDGFKGSVHRSAENNNSTWGWDGDKKRFIPNFYPSQTNEKSCLNNQCQEPFDGHKFGFDAMAGGSPFSAANRFTMYTPNSSAIIQRFFENKAVFDSRSSTGFSKWNADTQEMEPYEHTIDRAEQITASVNELSESKMAELMAEYAVVKVHMWNGNWTRNIYIPTASADNRGSILTINHEAGYNSYLFINGDEKVVSQGYKKSFVSDGQFWKERDVVDTREARKPEQFGVPVTTLVGYYDPEGTLSSYIYPAMYGAYGFTYSDDSQNLSDNDCQLQVDTKEGQLRFRLANHRANNTVMNKFHINVPTESQPTQATLVCNNKILDTKSLTPAPEGLTYTVNGQALPAKENEGCIVSVNSGKRYCLPVGQRSGYSLPDWIVGQEVYVDSGAKAKVLLSDWDNLSYNRIGEFVGNVNPADMKKVKAWNGQYLDFSKPRSMRVVYK",glycan array binding signal (z-score),[1],-0.062
same,glycan array binding signal (z-score),[2],-0.164
same,glycan array binding signal (z-score),[3],-0.13
same,glycan array binding signal (z-score),[4],-0.15
same,glycan array binding signal (z-score),[5],-0.148
same,glycan array binding signal (z-score),[6],-0.17
same,glycan array binding signal (z-score),[7],-0.115
same,glycan array binding signal (z-score),[8],-0.147
same,glycan array binding signal (z-score),[9],-0.152
same,glycan array binding signal (z-score),[10],-0.169
same,glycan array binding signal (z-score),[11],-0.002
same,glycan array binding signal (z-score),[12],0.034
same,glycan array binding signal (z-score),[13],-0.234
same,glycan array binding signal (z-score),[14],0.169
same,glycan array binding signal (z-score),[15],-0.17
same,glycan array binding signal (z-score),[16],-0.274
same,glycan array binding signal (z-score),[17],-0.269
same,glycan array binding signal (z-score),[18],-0.145
same,glycan array binding signal (z-score),[19],0.448
same,glycan array binding signal (z-score),[20],-0.18
same,glycan array binding signal (z-score),[21],-0.162
same,glycan array binding signal (z-score),[22],0.07
same,glycan array binding signal (z-score),[23],-0.302
same,glycan array binding signal (z-score),Gal(b1-4)GlcNAc6P,-0.154
same,glycan array binding signal (z-score),Gal(b1-6)Gal,-0.167
same,glycan array binding signal (z-score),Gal3S(b1-3)GalNAc,-0.352
same,glycan array binding signal (z-score),Gal3S(b1-3)GlcNAc,-0.214
same,glycan array binding signal (z-score),[24],-0.263
same,glycan array binding signal (z-score),Gal3S(b1-4)Glc,-0.218
same,glycan array binding signal (z-score),Gal3S(b1-4)Glc6S,0.132
